#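 Assay format: 96-well plates, 48-hour exposure. Abbreviation: GI50, concentration required for 50% inhibition of growth.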 The source made the active and inactive calls. Rule as the data show it: active = GI50 up to about 1.1 µM and inactive = higher.
# Tested on: NCI-H322M
# Test: NCI tumour cell line growth inhibition, 48 h
row,Structure (SMILES),GI50
1,O=C(O)CC/C(=N\Nc1nsc2ccccc12)c1ccccc1,inactive: 88.3 µM
2,COc1cc(/C=N/c2ccc(S(N)(=O)=O)cc2)cc(OC)c1,inactive: > 50 µM
3,COc1cc([C@@H]2c3cc4c(cc3[C@@H](/N=C/c3ccc(C(=O)O[C@H]5C[C@H]6OC[C@@]6(OC(C)=O)[C@H]6[C@H](OC(=O)c7ccccc7)[C@]7(O)C[C@H](OC(=O)[C@H](OC(=O)c8ccc(/C=N/[C@@H]9c%10cc%11c(cc%10[C@@H](c%10cc(OC)c(O)c(OC)c%10)[C@H]%10C(=O)OC[C@@H]%109)OCO%11)cc8)[C@@H](NC(=O)c8ccccc8)c8ccccc8)C(C)=C([C@@H](OC(C)=O)C(=O)[C@]56C)C7(C)C)cc3)C3COC(=O)C32)OCO4)cc(C)c1O (stereo not given in full),inactive: 18.5 µM
4,CC(C)c1cccc(=O)c(O)c1,inactive: 6.79 µM
5,CCOc1ccc2c(c1)C(/C(C(Cl)=C(Cl)Cl)=[N+](/[O-])OC(=O)c1ccccc1)=N2,inactive: > 100 µM
6,O=C1c2cc([N+](=O)[O-])cnc2S(=O)(=O)N1c1ccc(Oc2ccccc2)cc1,inactive: > 100 µM
7,Cc1ccc(C(=O)Nc2ccc(CP(=O)(O)O)cc2CP(=O)(O)O)cc1NC(=O)c1cccc(NC(=O)Nc2cccc(C(=O)Nc3cc(C(=O)Nc4ccc(CP(=O)(O)O)cc4CP(=O)(O)O)ccc3C)c2)c1,inactive: > 100 µM
8,O=C(Nc1nnc(-c2c(Cl)c(Cl)c(Cl)c(Cl)c2-c2nc3cc(C(=O)c4ccccc4)ccc3[nH]2)o1)c1ccc(Cl)cc1,inactive: 44.2 µM
9,COc1cccc(C2C(C(=O)Nc3cc(=O)n(C)c(=O)n3C)=C(C)NC(C)=C2C(=O)Nc2cc(=O)n(C)c(=O)n2C)c1O,inactive: > 100 µM
10,Cc1cc2[nH]c3c(C#N)c(-c4ccccc4)c(/N=N/c4ccc(F)cc4)c(=O)n3c2cc1C,inactive: > 100 µM
11,CC(=O)OC1COC(N2c3ccccc3[C@@H]3CCc4c([nH]c5ccccc45)[C@@H]32)C(OC(C)=O)C1OC(C)=O.CC(=O)OC1COC(N2c3ccccc3[C@H]3CCc4c([nH]c5ccccc45)[C@H]32)C(OC(C)=O)C1OC(C)=O (stereo not given in full),inactive: > 100 µM
12,Cc1ccc(C)c(NC(=O)/C(=N\NC(N)=S)C(C#N)c2ccccc2)c1 (stereo not given),inactive: > 100 µM
13,CC(=C/C=C/C=C(C)\C=C\C=C(\C)C(=O)O)/C=C/C=C(/C)C(=O)O,inactive: > 100 µM
14,CCNC(CCCC(NCC)P(=O)(O)O)P(=O)(O)O (stereo not given),inactive: > 100 µM
15,COC(=O)C(CCCN1C(=O)c2ccccc2C1=O)C(=O)OC,inactive: > 100 µM
16,CCCCCCCCCCCCCCCCCCCCCCC(=O)N[C@H]1CCc2cc(OC)c(OC)c(OC)c2-c2ccc(SC)c(=O)cc21,inactive: 54 µM
17,COc1ccc2c(c1)C(=O)CC(C(N)=O)C2 (stereo not given),inactive: > 100 µM
18,O=C1[C@@H]2Cc3c([nH]c4ccccc34)C(C3CCCCC3)N2C(=O)[C@@H]2CCCN12 (stereo not given in full),inactive: 58.9 µM
19,Cc1ccccc1NC(=O)C(=O)CC(=O)c1ccc([N+](=O)[O-])cc1,inactive: > 100 µM
20,C#CCNC(Cc1ccccc1)C(=O)O (stereo not given),inactive: > 100 µM

row,Structure (SMILES),GI50
1,Cn1cnc([N+](=O)[O-])c1[Se]c1ncnc2nc[nH]c12,inactive: 4.31 µM
2,CC(C)Cc1ccc(C(C)/C=C2\CCC(CN3CCCCC3)C2=O)cc1 (stereo not given),inactive: 14.5 µM
3,COc1cc2c(cc1OC)CN1CCCc3cc(OC)c(OC)cc3C1C2 (stereo not given),inactive: 50.2 µM
4,CCCC(=O)Nc1cn(COC)c(C(=O)N2C[C@H]3C[C@@]34C2=CC(=O)c2[nH]cc(C)c24)n1,inactive: 8.04 µM
5,O=C(O)CCNS(=O)(=O)c1ccc([N+](=O)[O-])cc1,inactive: > 100 µM
6,COc1ccc(CNc2cnc3ccc(N)cc3n2)cc1OC,inactive: > 100 µM
7,COc1cccc(NC(=O)c2c(SC)c(C#N)c(=O)n(N)c2N)c1,inactive: 45.1 µM
8,CCOC(=O)c1c[nH]c2cc3c(cc2c1=O)CCS3,inactive: > 100 µM
9,CC(=O)C1CC(C)=CCC12C(=O)Nc1ccccc12 (stereo not given),inactive: > 100 µM
10,O=c1[nH]nc(Cc2ccccc2)n1/N=C/c1c[nH]c2ccccc12,inactive: > 100 µM
11,COc1c(Cl)nc2ccccc2c1N=[N+]=[N-],inactive: > 100 µM
12,CN(C)CCN(C)CCC(=O)/C=C/c1ccccc1,inactive: > 100 µM
13,COC(=O)/C(=N/NC(N)=O)C(C(=O)C(=O)Nc1ccc(C)cc1)c1nc2ccc(C(=O)c3ccccc3)cc2nc1O (stereo not given),inactive: > 100 µM
14,CC1=NN(C(=O)c2ccc(Cl)cc2)C(=O)/C1=C/c1cccc(O)c1,inactive: > 100 µM
15,CC(=O)NC1=C(NC(C)(C)C)C(=O)c2ccccc2C1=O,inactive: > 100 µM
16,c1ccc2c(CC3NCCN3)cccc2c1,inactive: > 100 µM
17,O=c1c(-c2ccccc2)c(SCCN2CCCCCC2)n(-c2ccccc2)c(=S)n1-c1ccccc1,inactive: 11.5 µM
18,C/C(C=O)=C1\C(O)C[C@]1(C)C1CC(C)(C)CC1O (stereo not given in full),inactive: > 100 µM
19,C=CC1C(OC2OC(CO)C(O)C(O)C2O)OC=C(C(=O)OC)C1CC1CC(=O)CC(CCc2ccc(O)cc2)O1 (stereo not given),inactive: > 100 µM
20,CN(C)/N=N/c1ccccc1,inactive: > 100 µM
